Source: PubChem BioAssay AID686979 (National Center for Advancing Translational Sciences (NCATS), 2013)
The campaign covered roughly 420,000 compounds. About 50,000 (12%) were called active. This list was built around the results that the source calls inconclusive (neither active nor inactive); the mix of calls is not that of the screen. Calls follow the shape of the dose curve; as a rule, active = well fitted inhibition curve with a large enough effect; inconclusive = small, poorly fitted or top-dose-only effect; inactive = flat fitted curve, though single readings scatter. Potencies of inconclusive entries are left out as doubtful fits.

Assay: qHTS for Inhibitors of human tyrosyl-DNA phosphodiesterase 1 (TDP1): qHTS in cells in presence of CPT; also: nearly all actives have a fitted effect of over 55% in size
Details: chicken DT40 Tdp1-/-;hTDP1 cells + 20 nM CPT, ATP luminescence, 48 h; activity change, negative = growth inhibition: at 46.2 µM (top of the series) unless noted
Method in brief: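 Chicken DT40 Tdp1-/- cells stably complemented with human TDP1 were seeded at 400 cells/well in medium containing 20 nM camptothecin, exposed to pin-transferred compounds, and grown at 37 °C for at least 48 hr. Viability was read as ATP luminescence.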
% is scaled to controls: 0 for no effect and ±100 for the full control effect; potency is read from the fitted curve at half-maximal effect; tags tell the direction and shape of the fitted curve.

Row | Compound | Potency | activity change, negative = growth inhibition
1 | CCCCCCn1c(=O)n2n(c1=O)C[C@]1(OC(=O)NCC3CCCCC3)CN(S(=O)(=O)c3ccc(C)cc3)C[C@]1(O)C2 | inconclusive [inhibitor, single point] | –
2 | Cc1ccc(Nc2nnc(C3C(=O)N(C)C4(C)CC3c3cc(Br)ccc3O4)s2)cc1 (stereo unspecified) | inconclusive [inhibitor, single point] | –
3 | COc1ccc(/C=C/C(=O)c2cc(F)ccc2OC(=O)c2ccccc2C)cc1OC | active: 0.92 µM | –
4 | O=C(CSc1nnc(NC(=O)C2CC2)s1)Nc1ccccc1Cl | – | inactive: -10.5%
5 | COc1ccc(CCC(C)NC(=O)Cc2ccc(OC)c(OC)c2)c(OC)c1 (stereo unspecified) | inconclusive [inhibitor, single point] | –
6 | CC(C)C[C@@H](CO)N1CCN(Cc2cccnc2)CCC1=O | inconclusive [inhibitor, single point] | –
7 | COC(=O)c1ccc(/C=N/NC(=O)C(=O)NCc2ccccc2)cc1 | – | inactive: 3.09%
8 | CC(=O)N1c2ccc(S(=O)(=O)N3CCC(C(=O)NCCc4ccc(Cl)cc4)CC3)cc2CC1C (stereo unspecified) | active: 16.4 µM | –
9 | CCOc1ccc(N2C(=O)C3C4C=CC([C@H]5CC45)[C@@H]3C2=O)cc1 (stereo partly specified) | inconclusive [inhibitor, single point] | –
10 | CN(C)c1ncc2nc(CCc3ccccc3)c(=O)n(C3CC3)c2n1 | inconclusive [inhibitor, partial curve, poor fit] | –
11 | Cc1[nH]c2ccc(F)cc2c1CCN(Cc1ccco1)C(=S)NC(C)(C)C | inconclusive [inhibitor, single point] | –
12 | COc1ccc(NC(=O)c2c(-c3ccccc3Cl)noc2C)c(OC)c1 | inconclusive [inhibitor, single point] | –
13 | Cc1ccccc1NC(=O)CCCCC(=O)Nc1ccccc1C | – | inactive: -0.562%
14 | Cc1cccc(-n2c(Cc3cc(=O)[nH]c(=O)[nH]3)nnc2SCC(=O)N2CCCCC2)c1 | – | inactive: -2.06%
15 | O=C(CSc1ccccc1C(=O)NCc1ccccc1)NC1CCCCCCC1 | inconclusive [inhibitor, single point] | –
16 | COCCCNC(=O)c1ccc(Cn2c(=O)c3ccccc3n(Cc3ccccc3C)c2=O)cc1 | inconclusive [inhibitor, single point] | –
17 | CCOc1ccc(-c2nnc(SCC(=O)Nc3cc(F)ccc3F)o2)cc1 | inconclusive [inhibitor, partial curve, poor fit] | –
18 | CCCOc1ccc(C(=O)Nc2ccc3nn(-c4ccc(OC)c(Cl)c4)nc3c2)cc1 | – | inactive: -21.8%
19 | COc1ccc(NS(=O)(=O)c2cc(N)ccc2N2CCCCC2)cc1 | inconclusive [inhibitor, partial curve] | –
20 | Cc1ccc(C(NC(=O)C2CCN(CCOc3ccc(Cl)cc3)CC2)c2ccccn2)cc1 (stereo unspecified) | inconclusive [inhibitor, single point] | –
21 | Cc1ccccc1NC(=O)c1c(C)oc2ccc(O)c(CN3CCC(C)CC3)c12 | active: 16.4 µM | –
22 | CC(C)CCNC(=O)c1ccc(OC2CCN(S(=O)(=O)N(C)C)CC2)cc1 | inconclusive [inhibitor, single point] | –
23 | COc1cc(OC)c(OC)cc1CCC(C)NCCC(c1ccccc1)c1ccccc1 (stereo unspecified) | active: 6.51 µM | –
24 | Cc1c(C(=O)OCC(=O)NC(=O)NC2CCCCC2)cccc1[N+](=O)[O-] | inconclusive [inhibitor, single point] | –

Row | Compound | Potency | activity change, negative = growth inhibition
25 | C=CCN1/C(=C(\C#N)C2=NS(=O)(=O)c3ccccc32)N(C)c2ccccc21 | – | inactive: 0.997%
26 | O=S(=O)(c1ccc(Br)s1)N1CCN(c2ccc(F)cc2)CC1 | inconclusive [inhibitor, single point] | –
27 | COc1cc(NC(=S)Nc2cccc(C)n2)cc(OC)c1OC | – | inactive: -14.5%
28 | CCCn1nc(C(=O)OCC(=O)NC(C)c2ccccc2)c2ccccc2c1=O (stereo unspecified) | – | inactive: 21.2%
29 | CC(C)(C)n1nnnc1C(c1cccs1)N(Cc1cccnc1)CC1CCCO1 (stereo unspecified) | inconclusive [inhibitor, single point] | –
30 | COc1ccccc1N1CCN(C(=O)CCc2c[nH]c3ccccc23)CC1 | inconclusive [inhibitor, partial curve] | –
31 | CC(O)CNCCCCOc1ccc(OCc2ccccc2)cc1 (stereo unspecified) | active: 23.1 µM | –
32 | COc1ccc(NC(=O)c2cnn(-c3ccc(F)cc3F)c2C2CCN(C(=O)OC(C)(C)C)CC2)cc1Cl | inconclusive [inhibitor, single point] | –
33 | Cc1cc(NC(=O)COC(=O)C2CC(=O)N(c3ccc(Cl)cc3)C2)no1 (stereo unspecified) | – | inactive: -14.6%
34 | O=C(Nc1ccc(Cl)cc1)c1cc(S(=O)(=O)N2CCOCC2)cs1 | inconclusive [inhibitor, single point] | –
35 | O=C(c1ccco1)N1CCCN(Cc2cn[nH]c2-c2ccc(-c3ccccc3)cc2)CC1 | – | inactive: -5.53%
36 | CCOC(=O)c1sc(=S)n(-c2ccc3c(c2)OCO3)c1N | inconclusive [inhibitor, single point] | –
37 | Cc1nc2nc(SCC(=O)NCCN3CCOCC3)nn2c(C)c1Cc1ccccc1 | – | inactive: 3.94%
38 | Cc1ccc(NC(=O)Nc2cc(-c3ccccc3)nn2C)cc1Cl | inconclusive [inhibitor, single point] | –
39 | COC(=O)c1ccccc1NC(=O)CSc1nnnn1-c1ccc(C)cc1C | inconclusive [inhibitor, single point] | –
40 | CN1/C(=C\C=C(/C#N)C(=O)Nc2ccc(Cl)cc2)C(C)(C)c2ccccc21 | inconclusive [inhibitor, partial curve] | –
41 | CCC(=O)N1CCN(c2ccccc2NC(=O)COc2cccc(C)c2)CC1 | – | inconclusive: -30.6% [inhibitor]
42 | CSCCC(NC(=O)/C(=C/c1ccc(F)cc1)NC(C)=O)C(=O)O (stereo unspecified) | – | inactive: -4.89%
43 | O=C(Nc1ccc2c(c1)OCCO2)N1CCN(Cc2ccccc2)CC1 | – | inactive: -3.46%
44 | COc1ccccc1NS(=O)(=O)c1cn(C)cn1 | – | inactive: 5.64%
45 | CN(C)CCNC(=O)c1cccc(-c2cnc3c(NC=O)cc(-c4cccc(C(F)(F)F)c4)cn23)c1 | inconclusive [inhibitor, single point] | –
46 | CCOc1ccccc1NC(=O)n1ncc2cc(Cl)ccc21 | – | inactive: -14.4%
47 | CCOC(=O)C1=C(O)/C(=C/c2ccc(-c3ccccc3C(=O)O)o2)SC1=Nc1ccc(C)cc1 | inconclusive [inhibitor, single point] | –
48 | Cc1nnc(N2CCN(Cc3ccccc3)CC2)[nH]c1=O | – | inactive: -16.1%

Row | Compound | Potency | activity change, negative = growth inhibition
49 | CCCCc1ccc(-c2ccc(Br)cc2O)nc1 | inconclusive [inhibitor, partial curve, poor fit] | –
50 | O=C(O)CCCCCNc1nc(=S)[nH]c2ccccc12 | – | inactive: -6.55%
51 | Cc1cc2ncn(CC3CC3(Cl)Cl)c2cc1C (stereo unspecified) | inconclusive [inhibitor, single point] | –
52 | O=C(NCCc1ccco1)C(=O)NCC1OCCCN1S(=O)(=O)c1cc(F)ccc1F (stereo unspecified) | – | inactive: 2%
53 | Cc1ccc(NC(=O)Cn2c(=O)n(CCC(=O)NC3CCN(Cc4ccccc4)CC3)c(=O)c3ccccc32)cc1 | inconclusive [inhibitor, partial curve, poor fit] | –
54 | CCC(C)(C)n1nnnc1C(c1cc2ccc(C)cc2[nH]c1=O)N(Cc1cccnc1)Cc1ccco1 (stereo unspecified) | inconclusive [inhibitor, single point] | –
55 | CSc1nc(Oc2ccc(Cl)cc2)c2sccc2n1 | – | inactive: -15.2%
56 | COc1ccc(CCNS(=O)(=O)c2cccc([N+](=O)[O-])c2)cc1OC | – | inactive: -2.66%
57 | CC(C)Oc1ccc(C(=O)Nc2cccc(S(=O)(=O)N3CCCC3)c2)cc1 | active: 29.1 µM | –
58 | COC(=O)[C@@H](NCc1cccc(CN[C@H](C(=O)OC)C(C)C)c1)C(C)C | – | inactive: -7.62%
59 | Cc1cccc(CNc2nc(-c3c(C)noc3C)nc3ccccc23)c1 | inconclusive [inhibitor, single point] | –
60 | CC1=C(/C=C/C(C)=C/C=C/C(C)=C/C(=O)Oc2c(C)c(C)c3c(c2C)CC[C@@](C)(CCC[C@H](C)CCC[C@H](C)CCCC(C)C)O3)C(C)(C)CCC1 | – | inactive: -2.8%
61 | C[n+]1c2n(c3ccccc31)N=C(c1ccc(-c3ccccc3)cc1)CS2 | active: 0.58 µM | –
62 | c1ccc2c(c1)oc1c(NCCCN3CCOCC3)ncnc12 | – | inactive: -4.39%
63 | CC1=C(c2ccc(C)cc2)S(=O)(=O)N(Cc2ccc(C(=O)Nc3ccccc3C)cc2)C1=O | active: 7.31 µM | –
64 | CCn1nc(C)c(CNC(=O)c2ccc(OC3CCN(Cc4ccccn4)CC3)cc2)c1C | active: 6.51 µM | –
65 | Cc1ccc(NC(=O)CCCN2C(=O)c3cccc4cccc(c34)C2=O)cc1 | inconclusive [inhibitor, single point] | –
66 | Fc1ccc(-c2cn3cc(Cc4ccccc4Cl)sc3n2)cc1 | inconclusive [inhibitor, partial curve] | –
67 | Cc1cc2ccccc2n1CCNC(=O)c1ccc(F)cc1 | active: 14.6 µM | –
68 | CCN1C(=O)C2(c3ccccc31)c1c(oc3ccc(C)cc3c1=O)C(=O)N2CCCOC(C)C (stereo unspecified) | inconclusive [inhibitor, single point] | –
69 | c1ccc(-c2csc3ncnc(NCc4ccccn4)c23)cc1 | active: 11.6 µM | –
70 | C[C@]12c3[nH]c4cc(-c5ccco5)ccc4c3CCN1C(=O)[C@@H](CC(=O)NCc1cccc(C(F)(F)F)c1)C[C@@H]2C(=O)N1CCCCC1 | inconclusive [inhibitor, single point] | –
71 | COc1ccc(-c2cccc(NC(=O)c3ccco3)c2)nn1 | inconclusive [inhibitor, single point] | –
